The campaign covered roughly 150,000 compounds. About 540 (0.36%) showed an effect of 50% or more. The list shows a part of the results.

The test system of this test is Plasmodium falciparum. Nature of the test: Primary screen in NF54 nanoGlo assay, in single point, at 2uM, 72h; a lower Z score goes with more inhibition. The test is classed as functional, Erythrocyte. To be noted: timepoint 72 hour.
With `Cc1nc(N2CCCC2)c2c(C)c(C(=O)N3CCCC3)sc2n1`, the % Inhibition – broadly, the change of the read-out against control, counted positive when it falls – is -12% and the Z score is given as 1.08.
In the same order, the values of `COc1ccc(C(=O)N2c3ccccc3C[C@H]2c2nc(C(C)C)no2)cn1` are -10% and 1.28.
In the same order, the values of `CC(C)(C)OC(=O)NC1CCCC(NCc2ccc(C#N)o2)C1` (stereo not given) are -20% and 2.72.
In the same order, the values of `c1ccc(NC2CCCC3OCCC23)nc1` (stereo not given) are -11% and 1.24.
Turning to `Cc1cccc(NC(=O)C2CCN(c3cncnc3N3CCOCC3)CC2)c1C`, the “% Inhibition” value is -4% and the Z score turned out to be 0.83.
For the compound `Cc1cc(NCCCc2ccc(O)cc2)nc(N)n1`, the “% Inhibition” value was 5% and the Z score was -0.92.
In the same order, the values of `CNC(=O)c1cnn(-c2cc(-c3nc(C(C)C)no3)ccn2)c1C` are -12% and 1.97.
For `CCOC(=O)N1CCC(NS(=O)(=O)c2ccc(N3C(=O)CCS3(=O)=O)cc2C)CC1` the same measures were 6% and -0.79.
For `Cc1ccc(NC(=O)C2CCN(c3cc(-c4cccc(C)c4)ncn3)CC2)cc1` the same measures were -4% and 0.5.
For the compound `C[C@H](NS(=O)(=O)c1sc2c(c1C(=O)O)CCNC2)c1cc(F)cc(F)c1`, the “% Inhibition” value was -9% and the Z score is 0.84.
For the compound `CC[C@H](NC(=O)N1CCCCO1)c1ccc(OC(F)F)cc1`, the “% Inhibition” value is given as -10% and the Z score came out at 0.84.
In the same order, the values of `CC1(COc2cccc(CNC3CCCC3)c2)COC1` are 19% and -2.63.
Take `Cn1cc(CNC(=O)NC[C@]23C[C@H]2COC32CCC2)nn1`: the “% Inhibition” value is given as -5% and the Z score worked out at 1.
For the compound `O=C(c1ccccc1)c1cc(Cl)ccc1Nc1nc2ccc(Cl)cc2c(-c2ccccc2)c1Cl`, the “% Inhibition” value is -13% and the Z score is recorded as 1.72.
Regarding `COCCn1cnc2cc(NC(=O)C3CCCCC3)cc(C(=O)N(C)Cc3ccco3)c21`, the “% Inhibition” value is -4% and the Z score came out at 0.58.
Turning to `CN1CCO[C@@H]2CN(c3nc(C4CCC4)no3)C[C@@H]21`, the “% Inhibition” value was determined as 1% and the Z score was -0.08.
`CCN1C[C@@H](c2ccccc2)CC2(CCN(c3nc(CO)cs3)CC2)C1`: the “% Inhibition” value is on record as -13% and the Z score stood at 1.84.
Regarding `Cc1cc(C)c(C#N)c(-c2cccc(C(=O)NCc3cc(C4CC4)on3)c2)n1`, the “% Inhibition” value is -18% and the Z score is 1.96.
As for `Cn1cnc(CCNS(=O)(=O)C2CC2)c1Br`, the “% Inhibition” value is on record as -8% and the Z score is 1.13.
With `CC(C)c1nnc(NC(=O)CCC(=O)N2CCc3c(cccc3N3CCOC3=O)C2)s1`, the “% Inhibition” value is -15% and the Z score is 2.77.
`CN(CCO[C@@H]1CCCCO1)Cc1cc(Cl)cn1C`: the “% Inhibition” value is -5% and the Z score was 0.52.
In the case of `CCc1c(C)cc(C(=O)N2CCN(c3ccccc3C)C[C@@H]2C)c(=O)n1C`, the “% Inhibition” value is on record as -1% and the Z score is on record as 0.25.
For `Cc1cccc(-c2noc(-c3nc4c([nH]3)CCCNC4=O)n2)c1` the same measures were -17% and 1.53.
Turning to `CCN1CC2(CCN(c3ccnc(C)n3)CC2)C[C@@H](c2ccccc2)C1=O`, the “% Inhibition” value is -2% and the Z score was determined as 0.35.
For `COc1ccc(Cl)cc1C(=O)N1CCCN(Cc2ccncc2)CC1`, the “% Inhibition” value was -13% and the Z score was found to be 1.64.
Take `FC1(F)CCN(c2ncnc3[nH]ccc23)C1`: the “% Inhibition” value was -3% and the Z score is 0.37.
For `Cc1cc2ncn(Cc3nc(N)nc(N)n3)c2cc1C` the same measures were -11% and 0.99.
In the same order, the values of `Cc1cc(C2CCC2)nc(N(C)CC2(CO)CCOCC2)n1` are 4% and -0.5.
On to `Fc1ccc(-c2n[nH]c3c2CN(c2nnnn2-c2ccccc2)CC3)c(F)c1`, for which the “% Inhibition” value is reported as -8% and the Z score is 1.19.
In the same order, the values of `Cc1cc(C(=O)NCCNc2cnccn2)sc1C` are 7% and -1.07.
For `Cc1nc(CN(C)[C@@H](C)c2ccccn2)oc1C`, the “% Inhibition” value is recorded as -6% and the Z score came to 0.64.
Turning to `COc1cc2c(cc1OC)CN(C(=O)c1oc(C3CC3)nc1C)CC2`, the “% Inhibition” value is -5% and the Z score stood at 0.65.
For `O=C(NCCCn1cccn1)c1cnc(Cc2c(Cl)cccc2Cl)nc1O`, the “% Inhibition” value is reported as -7% and the Z score was 1.42.
In the case of `COc1ccc(CNC(=O)Cn2nc3c(-c4nc(-c5ccc(C)cc5)no4)cccn3c2=O)cc1`, the “% Inhibition” value is on record as -13% and the Z score is 1.99.
As for `Cc1csc(NC(=O)C2CCN(CCC#N)CC2)n1`, the “% Inhibition” value was -1% and the Z score was determined as 0.17.
For `COc1ccc(C(=O)O)nc1-c1cc(F)cc2cccnc12` the same measures were 0% and -0.08.
In the case of `CC(C)(C)OC(=O)N1CC[C@@](O)(c2ccccc2CO)C1`, the “% Inhibition” value is -8% and the Z score worked out at 1.04.
For `C=CCC[C@@H](CN1CCCC1)Oc1nccc(OC)n1`, the “% Inhibition” value was -12% and the Z score worked out at 1.3.
On to `Cc1cccc(N2CCO[C@H](c3ccco3)C2)n1`, for which the “% Inhibition” value is listed as -3% and the Z score worked out at 0.32.
For `CC(C)c1ccc(-c2noc(Cn3nnn(-c4ccccc4Cl)c3=O)n2)cc1` the same measures were -32% and 3.73.
In the same order, the values of `CC(=O)N1CCc2ccc(OCc3nc(C(=O)N(C)Cc4ccccc4)cs3)cc2[C@@H]1c1ccccc1` are -6% and 0.54.
For `O=C(NCCC(c1ccccc1)c1ccccc1)C1CCC1` the same measures were -11% and 1.52.
On to `Cc1nc(CC(=O)N[C@H]2CCN(Cc3cscn3)C[C@@H]2O)cs1`, for which the “% Inhibition” value is recorded as -14% and the Z score was determined as 1.82.
For `CC1CCCC(CCN2CCC[C@@H]2C(=O)O)C1` (stereo not given in full) the same measures were 2% and -0.32.
For the compound `Cc1cc(F)cc(S(=O)(=O)N2CCC[C@H]2c2ccnn2C)c1`, the “% Inhibition” value worked out at 7% and the Z score is reported as -0.78.
For `CCCC(=O)N1CCC(N[C@@H](c2cccnc2)c2ccc(C)cc2C)CC1` the same measures were -4% and 0.63.
Take `FC(F)(F)Cn1ccc(NC2CC3CCC2C3)n1` (stereo not given): the “% Inhibition” value was determined as 2% and the Z score is given as -0.21.
For `COCc1cc(=O)n(Cc2cccc(F)c2)c(N2CCCC2)n1`, the “% Inhibition” value is recorded as -11% and the Z score was determined as 1.35.
For `CC1CC(=O)CCC1C(=O)N(Cc1ccccc1)CC(C)(C)C` (stereo not given) the same measures were 0% and -0.02.
With `COc1nc2c(cc1CNc1cccc(C#N)n1)C(=O)N(C1CCCC1)C2`, the “% Inhibition” value is given as -1% and the Z score is 0.19.
In the same order, the values of `COCCO[C@H]1CCN(C(=O)NC2Cc3ccccc3C2)C1` are -11% and 2.19.
As for `CCC1CCCCN1CC(=O)N(C1CCCC1)C1CCS(=O)(=O)C1` (stereo not given), the “% Inhibition” value is -10% and the Z score is 1.53.
For `COc1cccc(N2CCN(C(=O)c3cnc(N4CCOCC4)nc3C)CC2)c1` the same measures were -20% and 3.12.
For `Cc1nnsc1CN(C)Cc1noc(-c2ccco2)n1` the same measures were -11% and 2.01.
In the same order, the values of `CCCc1ccc(CN2CCOC[C@@H]2CC(=O)Nc2ccc3c(c2)OCO3)o1` are -7% and 0.69.
With `CN1CC[C@H](CNC(=O)c2ccccc2NCc2ccccn2)C1`, the “% Inhibition” value is on record as -15% and the Z score is listed as 2.12.
For `COC(=O)CN(CCC#N)C[C@H]1CCOC1` the same measures were -14% and 1.22.
With `O=C(NC[C@H]1CCCO1)c1ccc(-c2cnc(=O)[nH]c2)cc1`, the “% Inhibition” value was determined as 3% and the Z score was -0.6.
With `O=C1CN(C(=O)NC2CCCC2)CCN1`, the “% Inhibition” value is -10% and the Z score amounted to 1.41.
Take `CC1CCC(N2C[C@@H]3C[C@H]2C(=O)NC[C@H]2O[C@H](CCOc4cc(-c5ccncc5)ccc4C(=O)N3)CC[C@@H]2O)CC1` (stereo not given in full): the “% Inhibition” value is reported as -2% and the Z score came out at 0.3.
For `CC(C)COc1nc(-c2ccc(F)cc2)n(-c2cccc(NC(=O)c3ccco3)c2)n1` the same measures were -7% and 0.85.
`CN(C)C(=O)[C@@H]1CN(CC2=CCCCC2)CCO1`: the “% Inhibition” value is -1% and the Z score came to 0.11.
In the same order, the values of `Cc1noc(C)c1C(=O)N1CC2(C[C@@H](c3nc(-c4ccncc4)no3)N(C)C2)C1` are -6% and 0.7.
In the case of `Cc1nc2c(c(N3CC[C@](C)(O)[C@@H](O)C3)n1)CCC2`, the “% Inhibition” value is on record as 6% and the Z score is on record as -1.19.
In the same order, the values of `CCS(=O)(=O)N1CCN(CCNC(=O)OC(C)(C)C)CC1` are -13% and 1.95.
For `N#Cc1cccc(C(=O)N[C@@H]2COCC[C@@H]2Oc2ccccc2)c1`, the “% Inhibition” value was -8% and the Z score turned out to be 1.3.
In the same order, the values of `O=C(Nc1ccc2c(c1)OCO2)N1CCN(C(=O)c2nsc3ccccc23)CC1` are 4% and -0.72.
For `COC(=O)[C@H](C)Nc1cnn(CC(F)(F)F)c1` the same measures were -9% and 1.31.
For `O=C(CN1CCCCCC1)Nc1ccnn1CC1CCCCC1` the same measures were 11% and -1.23.
In the case of `Cc1cc(N2CC(=O)N[C@H](CO)C2)nc(-c2cccs2)n1`, the “% Inhibition” value was 0% and the Z score was found to be 0.04.
As for `C[C@@H](Cn1cccn1)NC(=O)c1cc(Br)c[nH]1`, the “% Inhibition” value was -2% and the Z score is 0.3.
Turning to `Cn1c(=O)n(CCc2ccccc2)c2ccc(C(=O)NCc3ncc[nH]3)cc21`, the “% Inhibition” value is -4% and the Z score was found to be 0.48.
Consider `CC(C)c1nc([C@@H]2CC3(CN(C(=O)CCc4ccccc4)C3)CN2C)no1`, for which the “% Inhibition” value is listed as -14% and the Z score is reported as 1.6.
Regarding `CCOc1cc(CN(C(=O)[C@@H]2CNC(=O)C2)C2CCCCC2)ccc1OC`, the “% Inhibition” value is reported as 6% and the Z score was -1.22.
With `Cc1ccc(C)c(CN(C)C[C@H](O)COCCOC(C)C)c1`, the “% Inhibition” value is given as -13% and the Z score is 1.96.
For `O=C(NC1CCNCC1)[C@@H]1COc2ccccc2O1`, the “% Inhibition” value is listed as -12% and the Z score came out at 1.9.
`Cn1c(CCNC(=O)Cc2cccs2)nc2cccnc21`: the “% Inhibition” value is -17% and the Z score is 2.
For `CC(=O)N1CCN(c2c(C)cnc3c2c(=O)n(CC(=O)Nc2ccccc2F)c(=O)n3C)CC1` the same measures were 2% and -0.33.
Consider `O=C(Nc1c(S(=O)(=O)c2ccccc2)c2nc3ccccc3nc2n1CCc1ccccc1)c1ccc(Cl)cc1`, for which the “% Inhibition” value is given as 101% and the Z score is reported as -8.88.
For `Cc1ccsc1[C@H]1CCN(Cc2cccnc2N)C[C@@H]1O`, the “% Inhibition” value is listed as -6% and the Z score was found to be 1.12.
As for `O=C(NC[C@H]1CCCO1)c1ccc(-c2ccc3c(c2)OCCO3)s1`, the “% Inhibition” value is reported as -5% and the Z score stood at 0.52.
In the same order, the values of `COc1cccc2c1CC[C@]2(N)C(=O)N1CCN(C(C)=O)CC1` are -5% and 0.76.
For `Cn1ccnc1C(NC(=O)Nc1cc(C2(C)CCCC2)on1)c1nccn1C` the same measures were 9% and -0.91.
For `CCOc1cccc(Cl)c1Cn1cnn(C)c1=O` the same measures were 2% and -0.31.
Take `Cc1ccc(OC(=O)c2cccc(C(=O)Oc3ccc(C)cc3)n2)cc1`: the “% Inhibition” value is given as -8% and the Z score came to 1.35.

(Values after ChEMBL document CHEMBL4888484, “Replenishing the malaria drug discovery pipeline: Screening and hit evaluation of the MMV Hit Generation Library 1 (HGL1) against asexual blood stage Plasmodium falciparum ,using a nano luciferase reporter read-out” (2022).)
